Planktonic growth data for 72 molecules are collected here from the supplement of paper PMC7580552.

Counter-ions that a name gives are not always drawn. Some of the results follow. Single values are uncertain, as repeats are few or missing.
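Also: stationary (unshaken) cultures in 96-well plates, started at OD600 0.05 from mid-exponential cells, with compounds supplied from DMSO stocks.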

This experiment relates to Escherichia coli W3110. Nature of the experiment: planktonic growth (OD600) relative to untreated control; higher = more growth. Particulars: 10 µM; 20-24 h; 30 °C; TB.
Regarding `CCCCC[C@H](O)/C=C/[C@H]1[C@H](O)CC(=O)[C@@H]1CCCCCCC(=O)O` [Alprostadil], the planktonic growth was 88%.

`CC(C(=O)O)c1ccc(C(=O)c2cccs2)cc1` (configuration not stated) [Suprofen] registered a planktonic growth of 94%.

With `COc1cc2ncnc(Nc3ccc(F)c(Cl)c3)c2cc1OCCCN1CCOCC1` [Gefitinib], the planktonic growth turned out to be 110%. Molecule `CN1CCC[C@@H]1CCO[C@](C)(c1ccccc1)c1ccc(Cl)cc1` [Clemastine fumarate] registered a planktonic growth of 101%. `CCOc1ccc(NC(C)=O)cc1` [Phenacetin] yielded a planktonic growth of 89%. `NS(=O)(=O)c1cc2c(cc1Cl)NC(CC1CCCC1)NS2(=O)=O` (configuration not stated) [Cyclopenthiazide]: the planktonic growth worked out at 89%. As for `CC(C)(C)NCC(O)c1cc(O)cc(O)c1` (configuration not stated) [Terbutaline hemisulfate], the planktonic growth turned out to be 110%.

Regarding `CCOC(=O)[N-]c1c[n+](N2CCOCC2)no1` [Molsidomine], the planktonic growth was 89%. As for `CC[N+](CC)(CC)CCOc1cccc(OCC[N+](CC)(CC)CC)c1OCC[N+](CC)(CC)CC` [Gallamine triethiodide], the planktonic growth is 102%. With `C#C[C@]1(O)CC[C@H]2[C@@H]3CCC4=C(CCC(=O)C4)[C@H]3CC[C@@]21C` [Norethynodrel] the figure was 95%; with `CCc1oc2ccccc2c1C(=O)c1cc(Br)c(O)c(Br)c1` [Benzbromarone], 112%.

The molecule `CC/C(=C(\c1ccccc1)c1ccc(OCCN(C)C)cc1)c1ccccc1` [Tamoxifen citrate] came in with a planktonic growth of 91%.

`CN[C@@H]1[C@H](O[C@H]2[C@H](O[C@H]3[C@H](O)[C@@H](O)[C@H](NC(=N)N)[C@@H](O)[C@@H]3NC(=N)N)O[C@@H](C)[C@]2(O)CO)O[C@@H](CO)[C@H](O)[C@H]1O` [Dihydrostreptomycin sulfate] gave a planktonic growth of 52%.

`NCc1ccc(S(N)(=O)=O)cc1` [Mafenide hydrochloride] came in with a planktonic growth of 105%. For `NCC[C@H](O)C(=O)N[C@@H]1C[C@H](N)[C@@H](O[C@H]2O[C@H](CN)[C@@H](O)[C@H](O)[C@H]2O)[C@H](O)[C@H]1O[C@H]1O[C@H](CO)[C@@H](O)[C@H](N)[C@H]1O` [Amikacin hydrate], the planktonic growth amounted to 23%. Molecule `O=C1c2cccc3c2[C@H](CCC3)CN1[C@@H]1CN2CCC1CC2` [Palonosetron hydrochloride] showed a planktonic growth of 96%. In turn, `CC(C)CN(C[C@@H](O)[C@H](Cc1ccccc1)NC(=O)O[C@H]1CO[C@H]2OCC[C@H]21)S(=O)(=O)c1ccc(N)cc1` [Darunavir] registered a planktonic growth of 97%. The value for `Clc1ccc(Nc2nnc(Cc3ccncc3)c3ccccc23)cc1` [Vatalanib] was 106%. As to `CN1CCC(OC(c2ccccc2)c2ccccc2)CC1` [Diphenylpyraline hydrochloride], the planktonic growth was determined as 95%. For the molecule `O=C(Oc1cccc2cccnc12)c1ccccc1` [Benzoxiquine], the planktonic growth amounted to 107%. The value for `C[C@H]1COc2c(N3CCN(C)CC3)c(F)cc3c(=O)c(C(=O)O)cn1c23` [Levofloxacin] was 19%; that for `CN(C)CCCN1c2ccccc2CCc2ccccc21` [Imipramine hydrochloride] was 106%; that for `NC(CO)C(=O)NNCc1ccc(O)c(O)c1O` (configuration not stated) [Benserazide hydrochloride] was 91%.

For the molecule `NCCC[C@H](N)CC(=O)N[C@H]1CNC(=O)[C@H]([C@H]2C[C@H](O)NC(N)=N2)NC(=O)/C(=C/NC(N)=O)NC(=O)[C@H](CO)NC(=O)[C@H](CO)NC1=O` [Viomycin sulfate], the planktonic growth was 84%. On to `O=c1[nH]cnc2c1ncn2[C@H]1CC[C@@H](CO)O1` [Didanosine], for which the planktonic growth came out at 110%. As to `CN(C/C=C/C#CC(C)(C)C)Cc1cccc2ccccc12` [Terbinafine], the planktonic growth is 101%. On to `Nc1nc(O)c2ncn(CCC(CO)CO)c2n1` [Penciclovir], for which the planktonic growth stood at 107%. As for `Fc1ccc([C@@H]2CCNC[C@H]2COc2ccc3c(c2)OCO3)cc1` [Paroxetine Hydrochloride], the planktonic growth worked out at 100%. `CC1COc2c(N3CCN(C)CC3)c(F)cc3c(=O)c(C(=O)O)cn1c23` (configuration not stated) [Ofloxacin] returned a planktonic growth of 22%. In turn, `O=C(O)CCCC[C@@H]1SC[C@@H]2NC(=O)N[C@@H]21` [Biotin] showed a planktonic growth of 97%. The value for `COCC(=O)Nc1c(I)c(C(=O)NCC(O)CO)c(I)c(C(=O)N(C)CC(O)CO)c1I` (configuration not stated) [Iopromide] was 98%; that for `COC(=O)C1=C(C)NC(C)=C(C(=O)OC(C)C)C1c1cccc2nonc12` (configuration not stated) [Isradipine] was 93%. On to `C[C@H](CCC(=O)O)[C@H]1CC[C@H]2[C@@H]3CC[C@@H]4C[C@H](O)CC[C@]4(C)[C@H]3CC[C@]12C` [Lithocholic acid], for which the planktonic growth is 93%. Molecule `CC(=O)SCC(Cc1ccccc1)C(=O)NCC(=O)OCc1ccccc1` (configuration not stated) [Racecadotril] returned a planktonic growth of 101%.

The molecule `Cn1cnc([N+](=O)[O-])c1Sc1ncnc2[nH]cnc12` [Azathioprine] displayed a planktonic growth of 78%.

The molecule `CC(C)C(=O)Nc1ccc([N+](=O)[O-])c(C(F)(F)F)c1` [Flutamide] came in with a planktonic growth of 95%. For the molecule `COc1nc(N)nc2c1ncn2[C@@H]1O[C@H](CO)[C@@H](O)[C@@H]1O` [Nelarabine], the planktonic growth was found to be 106%. As to `COc1ccccc1N1CCN(CCCNc2cc(=O)n(C)c(=O)n2C)CC1` [Urapidil hydrochloride], the planktonic growth amounted to 92%.

In the case of `CCN(CC)Cc1cc(Nc2ccnc3cc(Cl)ccc23)ccc1O` [Amodiaquin dihydrochloride dihydrate], the planktonic growth was 100%.

Turning to `CCC(=O)OCC(=O)[C@@]1(OC(=O)CC)[C@@H](C)C[C@H]2[C@@H]3CCC4=CC(=O)C=C[C@]4(C)[C@@]3(Cl)[C@@H](O)C[C@@]21C` [Beclomethasone dipropionate], the planktonic growth amounted to 95%. The molecule `O=C(O)CN(CCN(CC(=O)O)CC(=O)O)CCN(CC(=O)O)CC(=O)O` [Pentetic acid] displayed a planktonic growth of 96%. As to `C#CCN(C)CCCOc1ccc(Cl)cc1Cl` [Clorgyline hydrochloride], the planktonic growth worked out at 95%.

Turning to `CC(C)NCC(O)c1cc(O)cc(O)c1` (configuration not stated) [Metaproterenol sulfate, orciprenaline sulfate], the planktonic growth amounted to 98%.

`Cn1c(=O)c2c(ncn2CCO)n(C)c1=O` [Etofylline] registered a planktonic growth of 87%. Turning to `CNCCCN1c2ccccc2CCc2ccccc21` [Desipramine hydrochloride], the planktonic growth was 98%.

Consider `O=C1OC(CN2CCOCC2)CN1/N=C/c1ccc([N+](=O)[O-])o1` (configuration not stated) [Furaltadone hydrochloride], for which the planktonic growth was found to be 94%.

In turn, `O=C(O)CCNC(=O)c1ccc(/N=N/c2ccc(O)c(C(=O)O)c2)cc1` [Balsalazide Sodium] gave a planktonic growth of 115%. For the molecule `Cc1cccc(Nc2ccccc2C(=O)O)c1C` [Mefenamic acid], the planktonic growth stood at 92%. For `CCC(C)n1ncn(-c2ccc(N3CCN(c4ccc(OCC5COC(Cn6cncn6)(c6ccc(Cl)cc6Cl)O5)cc4)CC3)cc2)c1=O` (configuration not stated) [Itraconazole], the planktonic growth was found to be 114%. The value for `C[n+]1ccccc1/C=N/O` [Pralidoxime chloride] was 100%. In the case of `CC1(C)S[C@@H]2[C@H](NC(=O)Cc3ccccc3)C(=O)N2[C@H]1C(=O)O` [Benzylpenicillin sodium], the planktonic growth was 90%. Regarding `CC1(C)S[C@@H]2[C@H](NC(=O)Cc3ccccc3)C(=O)N2[C@H]1C(=O)O` [Benzathine benzylpenicillin], the planktonic growth worked out at 85%.

With `CCCCc1nc(Cl)c(CO)n1Cc1ccc(-c2ccccc2-c2nnn[nH]2)cc1` [Losartan], the planktonic growth was 91%. The value for `CCN(CC)CCNC(=O)COc1ccc(OC)cc1` [Mefexamide hydrochloride] was 88%; that for `Cc1nc2n(c(=O)c1CCN1CCC(c3noc4cc(F)ccc34)CC1)CCCC2O` (configuration not stated) [Paliperidone] was 93%. In turn, `Clc1ccc(C(Cn2ccnc2)OCc2csc3c(Cl)cccc23)c(Cl)c1` (configuration not stated) [Sertaconazole nitrate] returned a planktonic growth of 90%. Take `CC(=O)OCC1=C(C(=O)O)N2C(=O)[C@@H](NC(=O)Cc3cccs3)[C@H]2SC1` [Cephalothin sodium salt]: the planktonic growth stood at 56%. The molecule `O=C1CCC(N2C(=O)c3ccccc3C2=O)C(=O)N1` (configuration not stated) [Thalidomide] registered a planktonic growth of 95%. The value for `O=C1NCCN1CCN1CCC(c2cn(-c3ccc(F)cc3)c3ccc(Cl)cc23)CC1` [Sertindole] was 115%.

The molecule `CC(CN(C)C)C(C)(O)Cc1ccc(Cl)cc1` (configuration not stated) [Clobutinol hydrochloride] yielded a planktonic growth of 103%. `C[C@]1(Cn2ccnn2)[C@H](C(=O)O)N2C(=O)C[C@H]2S1(=O)=O` [Tazobactam] registered a planktonic growth of 100%. `CC[C@@H](CO)NCCN[C@@H](CC)CO` [Ethambutol dihydrochloride] displayed a planktonic growth of 94%. Regarding `CC(=O)OCC(=O)[C@@]1(OC(C)=O)[C@@H](C)C[C@H]2[C@@H]3C[C@H](F)C4=CC(=O)C=C[C@]4(C)[C@@]3(F)[C@@H](O)C[C@@]21C` [Diflorasone Diacetate], the planktonic growth was 95%.

In the case of `CCCOc1ccc(C(=O)OCCN(CC)CC)cc1N` [Proparacaine hydrochloride], the planktonic growth was 99%. `N=C(N)NCCN1CCCCCCC1` [Guanethidine sulfate] returned a planktonic growth of 101%.

`CC(CN(C)C)CN1c2ccccc2Sc2ccccc21` (configuration not stated) [Trimeprazine tartrate] yielded a planktonic growth of 104%.

With `CC1(C)[C@@H](OC(=O)CCC(=O)O)CC[C@]2(C)[C@H]3C(=O)C=C4[C@@H]5C[C@@](C)(C(=O)O)CC[C@]5(C)CC[C@@]4(C)[C@]3(C)CC[C@@H]12` [Carbenoxolone disodium salt], the planktonic growth worked out at 95%.

`C=CCOC(Cn1ccnc1)c1ccc(Cl)cc1Cl` (configuration not stated) [Enilconazole] returned a planktonic growth of 109%.

Molecule `CN(C)CC/C=C1/c2ccccc2COc2ccc(CC(=O)O)cc21` [Olopatadine hydrochloride] displayed a planktonic growth of 98%. With `c1ccc(CN(CC2=NCCN2)c2ccccc2)cc1` [Antazoline hydrochloride] the figure was 91%. `CC(=O)N(CC(O)CN(C(C)=O)c1c(I)c(C(=O)NCC(O)CO)c(I)c(C(=O)NCC(O)CO)c1I)c1c(I)c(C(=O)NCC(O)CO)c(I)c(C(=O)NCC(O)CO)c1I` (configuration not stated) [Iodixanol]: the planktonic growth is 82%. The molecule `CC(C(=O)O)c1ccc(C(=O)c2ccccc2)s1` (configuration not stated) [Tiaprofenic acid] showed a planktonic growth of 91%.
